# Test results reported in a collection of fitness landscapes (doi:10.1016/j.celrep.2020.107928).
# Over roughly 81,000 sequences, “one-hybrid fitness for binding parS DNA” has its median near -0.17; the highest 2% begin near 0.51. The list shows a part of the results.
# B1: Caulobacter ParB omega fusion; a variant is named by its letters at X, in order, B8GW30 (parent)
# chain: MESVVVGEPGMSEGRRGLGRGLSALLGEVDAAPAQAPGEQLGGSREAPIEILQRNPDQPRRTFREEDLEDLSNSIREKGVLQPILVRPSPDTAGEYQIVAGERAWRAAQRAGLKTVPIMVRELDDLAVLEIGIIENVQRADLNVLEEALSYKVLMEKFERTQENIAQTIGKSXSHVANXMRLLXLPDEVQSYLVSGELTAXHARAIAAAADPVALAKQIIEGGLSVRETEALARKAPNLSAGKSKGGRPPRVKDTDTQALESDLSSVLGLDVSIDHRGSTGTLTITYATLEQLDDLCNRLTRGI
# Variants of: B1
# Assay: one-hybrid fitness for binding parS DNA (scaled: cognate 1, non-cognate 0); higher = stronger binding
# Conditions: with parS DNA site
# In short: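 Fitness here means the log change in variant-to-wild-type read ratio between plasmids sequenced before and after selection. That scale was set so cognate equals 1 and non-cognate equals 0. The selection was a bacterial one-hybrid screen of Caulobacter ParB libraries, four specificity codons randomised, in E. coli USO carrying a HIS3 reporter with the site 19 bp from the promoter, grown 48 hours at 37°C on M9-minus-histidine with 0.1 mM IPTG and 5 mM 3-AT.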
row,Variant,one-hybrid fitness for binding parS DNA
1,QSEG,≤ 0.2
2,LHFC,≤ 0.2
3,NTDM,≤ 0.2
4,QPRI,≤ 0.2
5,FPQS,≤ 0.2
6,QVKR,≤ 0.2
7,EFTS,≤ 0.2
8,AFDY,≤ 0.2
9,QTSY,≤ 0.2
10,PIHG,≤ 0.2
11,PGPT,≤ 0.2
12,PHVR,≤ 0.2
13,RLRN,0.432
14,RHVR,≤ 0.2
15,LIHK,≤ 0.2
16,TTTC,≤ 0.2
17,CLSS,≤ 0.2
18,FAQW,≤ 0.2
19,PHVC,≤ 0.2
20,QVWR,≤ 0.2
21,ILVC,≤ 0.2
22,KISS,≤ 0.2
23,QIAI,≤ 0.2
24,SCMA,≤ 0.2

row,Variant,one-hybrid fitness for binding parS DNA
1,IDLM,≤ 0.2
2,KTAM,≤ 0.2
3,VQIN,≤ 0.2
4,QSKQ,≤ 0.2
5,LSLW,≤ 0.2
6,LVPR,≤ 0.2
7,PWTC,≤ 0.2
8,GGAG,≤ 0.2
9,RMQI,≤ 0.2
10,RPDF,≤ 0.2
11,STED,≤ 0.2
12,EASC,≤ 0.2
13,HADT,≤ 0.2
14,HGTS,≤ 0.2
15,TKKK,≤ 0.2
16,RVYM,0.314
17,VLFY,≤ 0.2
18,NLEH,≤ 0.2
19,HQNL,≤ 0.2
20,REMN,≤ 0.2
21,WTNM,≤ 0.2
22,KSVR,≤ 0.2
23,PTYR,≤ 0.2
24,CAAK,≤ 0.2

row,Variant,one-hybrid fitness for binding parS DNA
1,GQTY,≤ 0.2
2,KKGT,≤ 0.2
3,TLVS,≤ 0.2
4,LNRW,≤ 0.2
5,MVTA,≤ 0.2
6,GKCC,≤ 0.2
7,MTAP,≤ 0.2
8,NCNN,≤ 0.2
9,HEIT,≤ 0.2
10,LMLG,≤ 0.2
11,ATIK,≤ 0.2
12,HQNC,≤ 0.2
13,QIHK,≤ 0.2
14,RTEP,≤ 0.2
15,RLIF,≤ 0.2
16,DTTW,≤ 0.2
17,HNRF,≤ 0.2
18,ITTG,≤ 0.2
19,PLFS,≤ 0.2
20,KRDD,≤ 0.2
21,FANR,≤ 0.2
22,CSSA,≤ 0.2
23,PVQA,≤ 0.2
24,SNGW,≤ 0.2

row,Variant,one-hybrid fitness for binding parS DNA
1,CADS,≤ 0.2
2,YMPK,≤ 0.2
3,QTTY,≤ 0.2
4,HTTV,≤ 0.2
5,TAQK,≤ 0.2
6,CVFK,≤ 0.2
7,VDCR,≤ 0.2
8,PHCS,≤ 0.2
9,WNNK,≤ 0.2
10,DQTK,≤ 0.2
11,VPWT,≤ 0.2
12,KRWS,≤ 0.2
13,KDES,≤ 0.2
14,SWPN,≤ 0.2
15,IPRN,≤ 0.2
16,NCRL,≤ 0.2
17,WENF,≤ 0.2
18,ALFI,≤ 0.2
19,DILQ,≤ 0.2
20,KYAY,≤ 0.2
21,FAAY,≤ 0.2
22,VDVL,≤ 0.2
23,WATQ,≤ 0.2
24,RYAN,0.387

row,Variant,one-hybrid fitness for binding parS DNA
1,RSKC,0.943
2,LMAS,≤ 0.2
3,CQAR,≤ 0.2
4,HQTR,≤ 0.2
5,KRDN,≤ 0.2
6,GINT,≤ 0.2
7,DVTN,≤ 0.2
8,HFWF,≤ 0.2
9,TMYR,≤ 0.2
10,SIFG,≤ 0.2
11,YRNV,≤ 0.2
12,NTES,≤ 0.2
13,QVWI,≤ 0.2
14,IREL,≤ 0.2
15,KMMS,≤ 0.2
16,YTHA,≤ 0.2
17,PQVT,≤ 0.2
18,NTVV,≤ 0.2
19,IQTS,≤ 0.2
20,CVVS,≤ 0.2
21,VLNE,≤ 0.2
22,LLQI,≤ 0.2
23,HYAD,≤ 0.2
24,HSRW,≤ 0.2

row,Variant,one-hybrid fitness for binding parS DNA
1,QNIG,≤ 0.2
2,QDLF,≤ 0.2
3,LVRR,≤ 0.2
4,RSLD,≤ 0.2
5,RFKR,≤ 0.2
6,HHLF,≤ 0.2
7,ARYW,≤ 0.2
8,NFHD,≤ 0.2
9,GLRL,≤ 0.2
10,TQPA,≤ 0.2
11,MERT,≤ 0.2
12,DLVV,≤ 0.2
13,LAAN,≤ 0.2
14,MNCF,≤ 0.2
15,RHNQ,≤ 0.2
16,STFP,≤ 0.2
17,FEDV,≤ 0.2
18,RKPW,≤ 0.2
19,TPGW,≤ 0.2
20,RRCW,0.218
21,CRHF,≤ 0.2
22,QQTQ,≤ 0.2
23,DTAG,≤ 0.2
24,LFWG,≤ 0.2

row,Variant,one-hybrid fitness for binding parS DNA
1,GAGG,≤ 0.2
2,QRAC,≤ 0.2
3,LDLE,≤ 0.2
4,TGHH,≤ 0.2
5,PYSM,≤ 0.2
6,QMSF,≤ 0.2
7,CYSF,≤ 0.2
8,HKKS,≤ 0.2
9,RLTA,0.599
10,WRKA,≤ 0.2
11,PRCM,≤ 0.2
12,AGMI,≤ 0.2
13,GMHT,≤ 0.2
14,ADTS,≤ 0.2
15,PDPL,≤ 0.2
16,RKAR,≤ 0.2
17,RPLN,≤ 0.2
18,QFMR,≤ 0.2
19,NNSY,≤ 0.2
20,RAGR,≤ 0.2
21,ALDC,≤ 0.2
22,VAPN,≤ 0.2
23,CLHE,≤ 0.2
24,LECG,≤ 0.2

row,Variant,one-hybrid fitness for binding parS DNA
1,FQAY,0.234
2,QPMY,≤ 0.2
3,WRFG,≤ 0.2
4,SATE,≤ 0.2
5,QLDT,≤ 0.2
6,ARYV,≤ 0.2
7,DCKC,≤ 0.2
8,YKDG,≤ 0.2
9,MTLS,≤ 0.2
10,CDPL,≤ 0.2
11,MVWT,≤ 0.2
12,CMSN,≤ 0.2
13,LLTK,≤ 0.2
14,QTDS,≤ 0.2
15,RAQF,0.229
16,NLWG,≤ 0.2
17,EPLR,≤ 0.2
18,IWGC,≤ 0.2
19,SNAC,≤ 0.2
20,VKCG,≤ 0.2
21,FGNG,≤ 0.2
22,RYHW,0.212
23,RAER,≤ 0.2
24,SDRC,≤ 0.2

row,Variant,one-hybrid fitness for binding parS DNA
1,PNPM,≤ 0.2
2,PVRQ,≤ 0.2
3,RFCR,≤ 0.2
4,DELS,≤ 0.2
5,MCPF,≤ 0.2
6,PQQS,≤ 0.2
7,RPPD,≤ 0.2
8,TINV,≤ 0.2
9,MPAW,≤ 0.2
10,FPHR,≤ 0.2
11,NCNQ,≤ 0.2
12,KMGR,≤ 0.2
13,SNHT,≤ 0.2
14,SHTG,≤ 0.2
15,PFRP,≤ 0.2
16,EWDR,≤ 0.2
17,WDLY,≤ 0.2
18,RIMP,≤ 0.2
19,HGVY,≤ 0.2
20,ERAV,≤ 0.2
21,SHPQ,≤ 0.2
22,LIAG,≤ 0.2
23,PMES,≤ 0.2
24,NREN,≤ 0.2

row,Variant,one-hybrid fitness for binding parS DNA
1,PTSV,≤ 0.2
2,CHYS,≤ 0.2
3,TPPK,≤ 0.2
4,VCTL,≤ 0.2
5,RLML,≤ 0.2
6,AEHK,≤ 0.2
7,TAHA,≤ 0.2
8,MWNV,≤ 0.2
9,PWLG,≤ 0.2
10,GTNM,≤ 0.2
11,CGRS,≤ 0.2
12,PSQD,≤ 0.2
13,HFAL,≤ 0.2
14,QPEA,≤ 0.2
15,ARSV,≤ 0.2
16,TVYT,≤ 0.2
17,SVLM,≤ 0.2
18,QVGC,≤ 0.2
19,LPKP,≤ 0.2
20,HMPC,≤ 0.2
21,PRVH,≤ 0.2
22,VISR,≤ 0.2
23,HHNQ,≤ 0.2
24,LEAF,≤ 0.2

row,Variant,one-hybrid fitness for binding parS DNA
1,FKRS,≤ 0.2
2,FSGD,≤ 0.2
3,QGSQ,≤ 0.2
4,KRLS,≤ 0.2
5,RAEG,0.852
6,PMCC,≤ 0.2
7,QQPC,≤ 0.2
8,LQVG,≤ 0.2
9,VPMT,≤ 0.2
10,RDHR,≤ 0.2
11,QIKM,≤ 0.2
12,FQSR,≤ 0.2
13,YTTR,≤ 0.2
14,AWNG,≤ 0.2
15,KTII,≤ 0.2
16,RCDA,0.567
17,PCGL,≤ 0.2
18,QDWG,≤ 0.2
19,GPNV,≤ 0.2
20,QLRD,≤ 0.2
21,LWAR,≤ 0.2
22,FMRG,≤ 0.2
23,TLVR,≤ 0.2
24,EGVR,≤ 0.2

row,Variant,one-hybrid fitness for binding parS DNA
1,WHEG,≤ 0.2
2,NQYG,≤ 0.2
3,LVTD,≤ 0.2
4,YSKQ,≤ 0.2
5,TFYS,≤ 0.2
6,TGYT,≤ 0.2
7,VEMG,≤ 0.2
8,LKGS,≤ 0.2
9,THAV,≤ 0.2
10,NIAS,≤ 0.2
11,PQVV,≤ 0.2
12,PNAL,≤ 0.2
13,VAEA,≤ 0.2
14,CTYV,≤ 0.2
15,TCAY,≤ 0.2
16,QIGE,≤ 0.2
17,QDSY,≤ 0.2
18,LTPF,≤ 0.2
19,NNKG,≤ 0.2
20,FHKW,≤ 0.2
21,QQNQ,≤ 0.2
22,WRKE,≤ 0.2
23,SYSG,≤ 0.2
24,QFPE,≤ 0.2

row,Variant,one-hybrid fitness for binding parS DNA
1,QDKV,≤ 0.2
2,ISLP,≤ 0.2
3,LGMH,≤ 0.2
4,PEYG,≤ 0.2
5,KEIR,≤ 0.2
6,VRSI,≤ 0.2
7,DINS,≤ 0.2
8,WPFG,≤ 0.2
9,EVSG,≤ 0.2
10,QSVN,≤ 0.2
11,ACES,≤ 0.2
12,TLGY,≤ 0.2
13,VTSC,≤ 0.2
14,PRMT,≤ 0.2
15,LSTL,≤ 0.2
16,CQPP,≤ 0.2
17,PDYW,≤ 0.2
18,TQAS,≤ 0.2
